Sequences with one replicate were seen in a single cluster, so their values are uncertain.
The sequences below were run on ATP (assay: switch fluorescence ratio, 500 uM ATP over buffer (Cy3 cluster intensity, sum of 5 cycles each) (fold (ratio)); higher = stronger signal-on switching upon ATP binding; sequences stand for … in TCGTCGGCAGCGTCAGATGTGTATAAGAGACAGTTTTTTTTTTTTTTTTTTTTTTTTT…TC). Conditions: aptamer strand: ATP DNA aptamer (quencher-CACCTGGGGGAGTATTGCGGAGGAAGG + anchor), 100 nM annealed; ATP concentration: 500 uM; one replicate.
In short: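 Imaging in selection buffer was followed by imaging after 15 min with 500 uM ATP at 22 °C, for Cy3-labelled switching-strand clusters annealed to 100 nM quencher-labelled ATP aptamer on a modified Illumina MiSeq flow-cell. Five of these buffer/ATP cycles ran, separated by NaOH stripping and re-annealing. The fluorescence ratio per cluster is summed target-cycle over summed buffer-cycle Cy3 intensity, averaged per switch-domain sequence; clusters outside 100-1000 RFU were removed.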
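Also: ATP exposure 15 min at 22 °C before imaging.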

Sequence	switch fluorescence ratio
GATCAAGCCA	0.991
TCGAACCACG	0.969
TGAATATTG	1.01
AACTTTACAA	1.12
AACAAAGTGG	1.02
ATTCAGCGC	1.01
CCGAGATAAG	1.14
AAGAATCGGA	1.01
GCATGGAATG	0.977
GTCGGTTTGT	0.969
ATCTTCCACG	1.42
AAACCAAATG	1.02
CGGGAAGGAT	1.02
AGGACGGCCC	0.968
AGGTAATGTC	0.928
TAGGAAGTTT	0.991
ATTGACAGCT	1.02
ATCAGCTGTT	0.994
CCCTTAGTTG	1.04
GGTTGCTAG	0.984
TTAAGGCTTC	1.01
TCAGTCCG	1.08
GCAATAGCCT	1.32

Sequence	switch fluorescence ratio
TGGCACATTG	1.02
AGTTGATCA	1.06
CTACAGTTGG	1.01
ATTGGACCCC	1.01
AATGCTGCAC	1.08
TTTGGTCAGC	1.02
TCCAGCGGGA	0.971
CTTATCTAGT	1.01
GGAGACTTCT	0.991
GGCGGGCGTT	0.985
ACTTTTACGA	1.18
TCAAAAGTTT	1.01
AACGGAGATA	0.965
TCGAGGTGT	0.98
CGTGCTGACC	1.01
CAATGACGTA	0.991
AGAAGGCTAC	1.01
TCTCAATGTG	1.03
CACGTCGTGC	0.971
TCATTGGGCA	0.977
ATTGAACAGA	0.997
AAGTCAATAT	1.41
CCATCTGCGG	1.51

Sequence	switch fluorescence ratio
ACTATGTAGT	0.959
GGGGCTCCTG	1.02
GGTTACAGGG	0.957
ATATAGTGTC	1.1
CTCATGTCGG	1.01
CTCACAACGC	1.37
GATGATATTT	0.991
CAGTAATTAA	0.995
TTCGACGTGA	1.57
CCGACTGGCT	1.59
ATCACCTG	1.05
CCTTCTACGT	1.52
ATTCCTATG	1.02
GCTAGGTATA	0.993
TCACTATGAC	1.07
GAACTGGTGC	1.13
TCGCCGGCCG	0.96
GTGAGGGCCT	0.993
ACTTGGTATC	0.988
GACACCGGAA	2.09
GATGTTTG	0.957
TGCAATTGGC	1.19
TGATAATGTG	0.993

Sequence	switch fluorescence ratio
ACGCAATTGG	3.35
ACGCTGGAGA	0.992
CGACTGTTGT	0.964
ACGATTGTAT	0.979
GAGAAACGGG	0.991
TTACGTGACG	0.995
CAAAGGAAGA	0.967
AGGTGATA	1.03
GAGAACCAGG	1.18
TCCATAACGT	1.03
GCGGGGTTAG	1.02
GTGGCACGGG	1
GACTTGTTAC	1.07
CCCATATGAC	1.06
TCTGGGCGGC	1.01
TATGCGAGGA	1.04
CGCAGAGGCC	1.11
TGATATCGGG	0.977
CGGGCATGGT	1.01
GTTCTATTGT	1.01
ATAACGAGCG	1.03
GGTGGGCGTT	0.993
TAACGTTTAC	1.14

Sequence	switch fluorescence ratio
TTTCGGTACC	0.973
CTTAGGCTAG	1
GACCTTTTGC	1.04
GAAGCCCCCG	2.15
GTTCCTTCGG	1.12
GGAGAGCACG	0.923
GGGTTGTCCC	1.01
GCTTAATGCT	1
GGTATGGGTA	0.991
GCTACTAAAC	1.14
TGATATAAGG	0.991
ACCGCCCCTT	1.21
TATGGGGTCG	0.963
CTGCTTAAGC	0.967
GGGGCCGATT	1.01
GACTAGCAGG	1.03
CGTCCCTGGG	1.05
AGGTTGCAAG	1.02
AGGCTTTTC	1.02
ATTCATGATG	0.995
TATGAGCGAG	1.07
CCACTCGATG	1.02
CCGAGCCTAA	3.48

Sequence	switch fluorescence ratio
TGGAAGAGCG	1.01
TTTCTCGGGC	1.07
AAATTCAGAT	1.08
GCGACGTCTT	1.03
TCTATGCACT	1.06
TTGTCAGCGC	1
TCGCGTCTCC	1.09
GCGCGGTTGC	1.06
ACGAGTAAGT	1.02
CTAGTTTCAG	0.977
ATGACAACAT	1.05
ATCACGAACT	1.49
ATGCGTATGG	1.06
CATCTTGCTT	1.05
GCGCTGACAT	1.02
TATTCTTTAT	0.998
AATTGACAGT	1.06
ATTAGGCCGT	1.01
AGCTAACGAG	1.07
TATAAAGAAA	1.03
GGTAAAAGTA	0.988
AAGCTGCGGC	0.986
GGGTCTATTC	0.997

Sequence	switch fluorescence ratio
ATCGGGCGTT	0.932
CGATCTTCGC	1.07
AGGGGCAGC	1.06
GACACCTATT	1.08
AACCCTAATG	1.03
GCGCGGAAAG	1.04
TCTTGAGATG	1.01
ATAGAGCGCC	0.977
AAAAGGGTT	1.01
CGCCCCTCTC	1.03
AATTGGGGAG	0.97
CAACGTAGAC	2.29
TCTGACGTTT	1.02
GTCAGAGTCC	1.01
AGGATGTCAA	0.969
TTGCTTATGA	0.954
GGACGAACAA	1.13
GGATATCGCA	1.05
GGCGCCAATA	1.36
